# At least one peptide structure holds a part that was inferred or is arguable (an end, a ring closure or a residue). Positions of bridges follow the written chain, without caps; N, C: chain ends. Residues, ends and D or L forms follow the SMILES beside them.
# Key:
# [1] = Resistance to elevated temperature, HPLC; type: physicochemical; settings: HPLC peak vs untreated peptide; for Resistance to Temperature (75° C.): 75° C. for one hour; for Resistance to Temperature (100° C.): 100° C. for one hour
# How it was run: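 Peptides were incubated at room temperature, 70° C or 100° C for one hour in ddH2O; another protocol used 70° C, 75° C or 100° C for one hour in 0.5 mM PBS, then pelleting and analysis of the supernatant. Remaining peptide was measured by C-18 RP-HPLC, 5–45% acetonitrile/0.1% TFA over 10 min.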
# [2] = Resistance to reduction by DTT, RP-HPLC; type: physicochemical; settings: 10 mM DTT in PBS, room temperature, 30 minutes; HPLC peak vs untreated peptide
# How it was run: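 Peptide (12.5 μg from a 2 mg/ml stock, or 0.015 mM final in PBS) was held 30 min at room temperature with or without 10 mM DTT. Reduced and non-reduced forms were compared by C-18 RP-HPLC using a 5–45% acetonitrile/0.1% TFA gradient over 10 min, with detection at 214 and 280 nm.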
Compound,Resistance to Temperature (75° C.) [1],Resistance to Temperature (100° C.) [1],Resistance to DTT Reduction (10 mM) [2],Resistance to Temperature (70° C.) ([1]; 70° C. for one hour)
"CC[C@H](C)[C@@H]1NC(=O)[C@@H]2CSSC[C@@H]3NC(=O)[C@H](CCC(N)=O)NC(=O)[C@H](CO)NC(=O)[C@H]([C@@H](C)O)NC(=O)[C@H](CC(N)=O)NC(=O)[C@H](CO)NC(=O)[C@@H](NC(=O)[C@H](CCCCN)NC(=O)[C@H](CCCCN)NC(=O)[C@H](CC(N)=O)NC(=O)[C@@H](NC(=O)[C@H](CO)NC(=O)[C@@H](NC(=O)[C@H](CCC(N)=O)NC(=O)[C@H](CO)NC(=O)CN)C(C)C)[C@@H](C)O)CSSC[C@H](NC(=O)[C@H](CCCCN)NC(=O)CNC(=O)[C@H](C)NC(=O)[C@H](C)NC(=O)[C@H](C(C)C)NC(=O)CNC(=O)[C@H](C(C)C)NC(=O)[C@H](C(C)C)NC(=O)[C@H](CCCCN)NC(=O)[C@H](CCC(=O)O)NC(=O)[C@H](CSSC[C@@H](C(=O)N[C@@H](Cc4ccc(O)cc4)C(=O)N4CCC[C@H]4C(=O)O)NC1=O)NC(=O)[C@H]([C@@H](C)O)NC(=O)[C@H](CCCCN)NC(=O)[C@H](Cc1ccc(O)cc1)NC3=O)C(=O)N[C@@H](CCSC)C(=O)N[C@@H](CC(N)=O)C(=O)NCC(=O)N[C@@H](CCCCN)C(=O)N2 [compound 18] (H-GSQVSTNKKCSNTSQCYKTCEKVVGVAAGKCMNGKCICYP-OH; disulfide 10-31, 16-36, 20-38)",High (A peptide classified as high indicates that the majority (at least 75%) of the HPLC peak of the treated peptide is still present as compared to the HPLC peak of the untreated peptide),Moderate (A peptide classified as medium indicates that about half (between 25% and 75%) of the HPLC peak of the treated peptide disappeared as compared to the HPLC peak of the untreated peptide),Low (A peptide classified as low indicates that the majority (over 75%) of the HPLC peak of the treated peptide disappeared as compared to the HPLC peak of the untreated peptide),
"CC[C@H](C)[C@@H]1NC(=O)[C@@H]2CSSC[C@H](NC(=O)[C@H](C)NC(=O)CNC(=O)[C@H](CCC(=O)O)NC(=O)[C@@H](NC(=O)[C@H](CCCCN)NC(=O)[C@H](Cc3ccccc3)NC(=O)[C@H](CC(N)=O)NC(=O)[C@H](CO)NC(=O)CN)C(C)C)C(=O)N[C@@H](CO)C(=O)N[C@@H](CCCCN)C(=O)N3CCC[C@H]3C(=O)N[C@H]3CSSC[C@H](NC(=O)[C@H](CCCNC(=N)N)NC(=O)CNC(=O)[C@H](CC(N)=O)NC1=O)C(=O)N[C@@H](Cc1c[nH]cn1)C(=O)N[C@H](C(=O)N[C@@H](Cc1ccc(O)cc1)C(=O)N[C@@H](Cc1ccc(O)cc1)C(=O)O)CSSC[C@H](NC(=O)[C@H](Cc1ccc(O)cc1)NC(=O)[C@H](CCCCN)NC(=O)[C@H](CCCNC(=N)N)NC3=O)C(=O)N[C@@H]([C@@H](C)CC)C(=O)N[C@@H](CC(=O)O)C(=O)N[C@@H](CCCCN)C(=O)NCC(=O)N[C@@H](C)C(=O)N[C@@H](CCCNC(=N)N)C(=O)N[C@@H](CC(N)=O)C(=O)NCC(=O)N[C@@H](CCCCN)C(=O)N2 [compound 5] (H-GSNFKVEGACSKPCRKYCIDKGARNGKCINGRCHCYY-OH; disulfide 10-28, 14-33, 18-35)",High (A peptide classified as high indicates that the majority (at least 75%) of the HPLC peak of the treated peptide is still present as compared to the HPLC peak of the untreated peptide),High (A peptide classified as high indicates that the majority (at least 75%) of the HPLC peak of the treated peptide is still present as compared to the HPLC peak of the untreated peptide),Low (A peptide classified as low indicates that the majority (over 75%) of the HPLC peak of the treated peptide disappeared as compared to the HPLC peak of the untreated peptide),
"CC(C)[C@H](NC(=O)[C@H](CO)NC(=O)CN)C(=O)N[C@@H](CO)C(=O)N[C@H]1CSSC[C@@H]2NC(=O)[C@H](CCCCN)NC(=O)[C@H](C)NC(=O)[C@H](CCCNC(=N)N)NC(=O)[C@H](CCC(N)=O)NC(=O)[C@H](CC(=O)O)NC(=O)[C@H](CCCCN)NC(=O)[C@H]([C@@H](C)O)NC(=O)[C@H](C)NC(=O)[C@@H]3CSSC[C@@H](C(=O)N[C@@H](CCC(=O)O)C(=O)N4CCC[C@H]4C(=O)N[C@@H](CCCCN)C(=O)O)NC(=O)[C@H](C(C)C)NC(=O)[C@H](CSSC[C@H](NC(=O)[C@H](CC(=O)O)NC(=O)[C@H](CCC(=O)O)NC1=O)C(=O)N1CCC[C@H]1C(=O)N[C@@H](CCC(=O)O)C(=O)N[C@@H](Cc1c[nH]cn1)C(=O)N3)NC(=O)[C@H](CCCNC(=N)N)NC(=O)[C@H](CC(=O)O)NC(=O)[C@H](CC(N)=O)NC(=O)[C@H](CC(=O)O)NC2=O [compound 54] (H-GSVSCEDCPEHCATKDQRAKCDNDRCVCEPK-OH; disulfide 5-21, 8-26, 12-28)",High (A peptide classified as high indicates that the majority (at least 75%) of the HPLC peak of the treated peptide is still present as compared to the HPLC peak of the untreated peptide),High (A peptide classified as high indicates that the majority (at least 75%) of the HPLC peak of the treated peptide is still present as compared to the HPLC peak of the untreated peptide),Low (A peptide classified as low indicates that the majority (over 75%) of the HPLC peak of the treated peptide disappeared as compared to the HPLC peak of the untreated peptide),
"CC[C@H](C)[C@H](NC(=O)CNC(=O)[C@@H](NC(=O)[C@H](CO)NC(=O)[C@@H](NC(=O)[C@H](CO)NC(=O)CN)[C@@H](C)CC)[C@@H](C)CC)C(=O)N[C@@H](CCCCN)C(=O)N[C@H]1CSSC[C@@H]2NC(=O)[C@H](Cc3ccc(O)cc3)NC(=O)CNC(=O)[C@H]([C@@H](C)O)NC(=O)[C@H](Cc3ccccc3)NC(=O)[C@H](Cc3ccc(O)cc3)NC(=O)[C@H](CCCCN)NC(=O)[C@H](CCCNC(=N)N)NC(=O)[C@H]([C@@H](C)CC)NC(=O)[C@H](CCCNC(=N)N)NC(=O)[C@@H]3CSSC[C@@H](C(=O)N[C@@H](CO)C(=O)NCC(=O)O)NC(=O)[C@H](Cc4c[nH]cn4)NC(=O)[C@H](CSSC[C@H](NC(=O)[C@H](CC(C)C)NC(=O)[C@H](CC(=O)O)NC(=O)[C@H]([C@@H](C)CC)NC(=O)[C@H](CO)NC(=O)[C@@H]4CCCN4C(=O)[C@H](CO)NC1=O)C(=O)N[C@@H](CCC(=O)O)C(=O)NCC(=O)N[C@@H](CCC(N)=O)C(=O)N3)NC(=O)[C@H]([C@@H](C)O)NC(=O)[C@H](CC(=O)O)NC(=O)CNC(=O)[C@H](CO)NC2=O [compound 3] (H-GSISIGIKCSPSIDLCEGQCRIRKYFTGYCSGDTCHCSG-OH; disulfide 9-30, 16-35, 20-37)",High (A peptide classified as high indicates that the majority (at least 75%) of the HPLC peak of the treated peptide is still present as compared to the HPLC peak of the untreated peptide),High (A peptide classified as high indicates that the majority (at least 75%) of the HPLC peak of the treated peptide is still present as compared to the HPLC peak of the untreated peptide),Low (A peptide classified as low indicates that the majority (over 75%) of the HPLC peak of the treated peptide disappeared as compared to the HPLC peak of the untreated peptide),High (A peptide classified as high indicates that the majority (at least 75%) of the HPLC peak of the treated peptide is still present as compared to the HPLC peak of the untreated peptide)
"CC[C@H](C)[C@H](NC(=O)[C@H](CC(=O)O)NC(=O)[C@@H](NC(=O)[C@@H]1CCCN1C(=O)[C@H](CCCNC(=N)N)NC(=O)[C@H](CO)NC(=O)CN)[C@@H](C)O)C(=O)N[C@@H](CCCCN)C(=O)N[C@H]1CSSC[C@@H]2NC(=O)[C@H](CCCNC(=N)N)NC(=O)CNC(=O)[C@H](CC(N)=O)NC(=O)[C@H]([C@@H](C)O)NC(=O)[C@H](CCCCN)NC(=O)CNC(=O)[C@H](Cc3ccccc3)NC(=O)[C@H](CCCNC(=N)N)NC(=O)[C@H](CO)NC(=O)[C@H](CCCCN)NC(=O)[C@@H]3CSSC[C@@H](C(=O)N[C@@H](Cc4ccccc4)C(=O)O)NC(=O)[C@H](CC(=O)O)NC(=O)[C@H](CSSC[C@H](NC(=O)[C@H](CCC(N)=O)NC(=O)[C@H](Cc4ccc(O)cc4)NC(=O)[C@H](CO)NC(=O)[C@H](C)NC(=O)[C@H](CO)NC1=O)C(=O)N[C@@H](Cc1ccccc1)C(=O)N1CCC[C@H]1C(=O)N[C@@H](C(C)C)C(=O)N3)NC(=O)[C@H](CC(C)C)NC(=O)CNC(=O)[C@H](CC(N)=O)NC(=O)[C@H](C(C)C)NC2=O [compound 10] (H-GSRPTDIKCSASYQCFPVCKSRFGKTNGRCVNGLCDCF-OH; disulfide 9-30, 15-35, 19-37)",High (A peptide classified as high indicates that the majority (at least 75%) of the HPLC peak of the treated peptide is still present as compared to the HPLC peak of the untreated peptide),High (A peptide classified as high indicates that the majority (at least 75%) of the HPLC peak of the treated peptide is still present as compared to the HPLC peak of the untreated peptide),High (A peptide classified as high indicates that the majority (at least 75%) of the HPLC peak of the treated peptide is still present as compared to the HPLC peak of the untreated peptide),
